Reference: the supplement of paper PMC4604168 (melanoma cell lines)
This is one part of the list. Most values come without repeats; read them as rough.

Columns and labels:
Assay in all cases: cell count relative to DMSO control; melanoma cells; higher = more viable cells
Conditions in all cases: library dose: standard library concentration; 72 h
[1] = tested on: SkMel28
[2] = tested on: SkMel2
[3] = tested on: SkMel30
[4] = tested on: SkMel5
[5] = tested on: UACC257
[6] = tested on: UACC62
[7] = tested on: WM115
[8] = tested on: WM1716
[9] = tested on: WM1745
[10] = tested on: WM3526
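Note: cells treated in 1,536-well plates, then fixed and DAPI-stained, with nuclei counted from automated high-throughput microscope images.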

Structure (SMILES) | cell count [1] [%] | cell count [2] [%] | cell count [3] [%] | cell count [4] [%] | cell count [5] [%] | cell count [6] [%] | cell count [7] [%] | cell count [8] [%] | cell count [9] [%] | cell count [10] [%]
C=C(c1ccc(C(=O)O)cc1)c1cc2c(cc1C)C(C)(C)CCC2(C)C [Bexarotene] + Cn1cncc1[C@@](N)(c1ccc(Cl)cc1)c1ccc2c(c1)c(-c1cccc(Cl)c1)cc(=O)n2C [tipifarnib] (first compound 10 µM, partner dose 0.05 µM) | 68.2 | 70.8 | 99.8 | 98.9 | 90.1 | 81 | 77.6 | 72.5 | 102 | 98.3
C=C(c1ccc(C(=O)O)cc1)c1cc2c(cc1C)C(C)(C)CCC2(C)C [Bexarotene] + CC(C)(C)c1cnc(CSc2cnc(NC(=O)C3CCNCC3)s2)o1 [SNS-032] (first compound 10 µM, partner dose 0.05 µM) | 77 | 83.8 | 88.1 | 84.8 | 75.7 | 72.5 | 106 | 78.9 | 102 | 93.8
NC1(c2ccc(-c3nc4ccn5c(=O)[nH]nc5c4cc3-c3ccccc3)cc2)CCC1 + O=C(O)[C@@H]1[O][Sb](=[O])([O][Sb]2(=[O])[O][C@H]([C@H](O)CO)[C@H](O)[C@H](C(=O)O)[O]2)[O][C@H]([C@H](O)CO)[C@@H]1O [stibogluconate] (first compound 2 µM, partner dose 10 µM) | 63.1 | 106 | 102 | 77.2 | 89.2 | 83.9 | 80.1 | 83.3 | 103 | 70.1
NC1(c2ccc(-c3nc4ccn5c(=O)[nH]nc5c4cc3-c3ccccc3)cc2)CCC1 + CNC(=O)c1cc(Oc2ccc(NC(=O)Nc3ccc(Cl)c(C(F)(F)F)c3)cc2)ccn1 [sorafenib] (first compound 2 µM, partner dose 2 µM) | 57.1 | 65.6 | 91.7 | 81 | 98.2 | 56.9 | 76.9 | 98.5 | 83.3 | 62.5
CS(=O)(=O)c1ccc(C(=O)Nc2ccc(Cl)c(-c3ccccn3)c2)c(Cl)c1 [vismodegib] + CC(=O)O[C@@]12CO[C@@H]1C[C@H](O)[C@@]1(C)C(=O)[C@H](O)C3=C(C)[C@@H](OC(=O)[C@H](O)[C@@H](NC(=O)OC(C)(C)C)c4ccccc4)C[C@@](O)([C@@H](OC(=O)c4ccccc4)[C@H]21)C3(C)C [Docetaxel] (first compound 5 µM, partner dose 0.0005 µM) | 14.7 | 13.6 | 37.9 | 44.8 | 57.4 | 41.9 | 36.4 | 44.3 | 24.5 | 35.8
CN(c1ncccc1CNc1nc(Nc2ccc3c(c2)CC(=O)N3)ncc1C(F)(F)F)S(C)(=O)=O + NCC(=O)Nc1ccc(-n2nc(C(F)(F)F)cc2-c2ccc3c(ccc4ccccc43)c2)cc1 [OSU03012] (first compound 0.4 µM, partner dose 5 µM) | 31 | 35.1 | 48.4 | 59.6 | 75.1 | 57.5 | 63.9 | 82.5 | 56.4 | 52.1
CS(=O)(=O)c1ccc(C(=O)Nc2ccc(Cl)c(-c3ccccn3)c2)c(Cl)c1 [vismodegib] + Cn1nnc2c(C(N)=O)ncn2c1=O [temozolomide] (first compound 5 µM, partner dose 10 µM) | 43 | 85 | 70.3 | 73.8 | 106 | 49.4 | 82.1 | 68.3 | 128 | 73
NC1(c2ccc(-c3nc4ccn5c(=O)[nH]nc5c4cc3-c3ccccc3)cc2)CCC1 + C=C(c1ccc(C(=O)O)cc1)c1cc2c(cc1C)C(C)(C)CCC2(C)C [Bexarotene] (first compound 2 µM, partner dose 10 µM) | 57.2 | 73.5 | 88.5 | 84.2 | 84.3 | 70.9 | 85.8 | 61.3 | 90.1 | 57.2
CS(=O)(=O)c1ccc(C(=O)Nc2ccc(Cl)c(-c3ccccn3)c2)c(Cl)c1 [vismodegib] + CO[C@H]1C[C@@H]2CC[C@@H](C)[C@@](O)(O2)C(=O)C(=O)N2CCCC[C@H]2C(=O)O[C@H]([C@H](C)C[C@@H]2CC[C@@H](OCCO)[C@H](OC)C2)CC(=O)[C@H](C)/C=C(\C)[C@@H](O)[C@@H](OC)C(=O)[C@H](C)C[C@H](C)/C=C/C=C/C=C/1C [everolimus] (first compound 5 µM, partner dose 0.1 µM) | 51.2 | 66.1 | 67.4 | 58.7 | 88.9 | 66.3 | 93.1 | 81.8 | 98.8 | 73.2
CCCS(=O)(=O)Nc1ccc(F)c(C(=O)c2c[nH]c3ncc(Cl)cc23)c1F + Cn1c(Nc2ccc(C(F)(F)F)cc2)nc2cc(Oc3ccnc(-c4ncc(C(F)(F)F)[nH]4)c3)ccc21 [CHIR265] (first compound 0.4 µM, partner dose 0.4 µM) | 31.4 | 56.4 | 76.1 | 34.8 | 78.8 | 60.1 | 41 | 69.5 | 54.9 | 40.8
CN(c1ncccc1CNc1nc(Nc2ccc3c(c2)CC(=O)N3)ncc1C(F)(F)F)S(C)(=O)=O + COCC[n+]1c2c(n(Cc3cnccn3)c1C)C(=O)c1ccccc1C2=O [YM155] (first compound 0.4 µM, partner dose 0.002 µM) | 40.1 | 29.5 | 66.7 | 18.4 | 26.7 | 48 | 67.1 | 55.8 | 77.5 | 32.6
CS(=O)(=O)c1ccc(C(=O)Nc2ccc(Cl)c(-c3ccccn3)c2)c(Cl)c1 [vismodegib] + CO[C@@H]1[C@H](N(C)C(=O)c2ccccc2)C[C@H]2O[C@]1(C)n1c3ccccc3c3c4c(c5c6ccccc6n2c5c31)C(=O)NC4 [Midostaurin] (first compound 5 µM, partner dose 0.4 µM) | 101 | 66.8 | 68.3 | 61.8 | 78.3 | 74.2 | 55.2 | 51.2 | 49.3 | 84.8
CN(c1ncccc1CNc1nc(Nc2ccc3c(c2)CC(=O)N3)ncc1C(F)(F)F)S(C)(=O)=O + Nc1cccc2c1CN(C1CCC(=O)NC1=O)C2=O [lenalidomide] (first compound 0.4 µM, partner dose 5 µM) | 64.8 | 69 | 92.3 | 78.4 | 97.1 | 63.1 | 82.5 | 84.3 | 70.3 | 76.2
NC1(c2ccc(-c3nc4ccn5c(=O)[nH]nc5c4cc3-c3ccccc3)cc2)CCC1 + O=C(O)c1ccc2c(c1)nc(Nc1cccc(Cl)c1)c1ccncc12 [CX4945] (first compound 2 µM, partner dose 2 µM) | 41.9 | 63.7 | 64.9 | 64.1 | 86.9 | 51.7 | 58.9 | 69.5 | 62.5 | 44.3
NC1(c2ccc(-c3nc4ccn5c(=O)[nH]nc5c4cc3-c3ccccc3)cc2)CCC1 + COc1cc(Nc2ncc(F)c(Nc3ccc4c(n3)NC(=O)C(C)(C)O4)n2)cc(OC)c1OC [Tamatinib] (first compound 2 µM, partner dose 2 µM) | 34.1 | 57 | 88.5 | 53.3 | 72 | 57 | 41.1 | 78.6 | 32.2 | 51.3
NC1(c2ccc(-c3nc4ccn5c(=O)[nH]nc5c4cc3-c3ccccc3)cc2)CCC1 + C[C@@H](Oc1cc(-c2cnn(C3CCNCC3)c2)cnc1N)c1c(Cl)ccc(F)c1Cl [Crizotinib] (first compound 2 µM, partner dose 1 µM) | 26.5 | 71.5 | 82.1 | 45.8 | 89.1 | 60.7 | 35.5 | 68.7 | 51.4 | 57.6
CN(c1ncccc1CNc1nc(Nc2ccc3c(c2)CC(=O)N3)ncc1C(F)(F)F)S(C)(=O)=O + Cc1cc(Nc2cc(N3CCN(C)CC3)nc(/C=C/c3ccccc3)n2)n[nH]1 [ENMD2076] (first compound 0.4 µM, partner dose 0.2 µM) | 40.4 | 83.9 | 104 | 70.1 | 92.3 | 95.1 | 52.6 | 71.1 | 39.9 | 112
NC1(c2ccc(-c3nc4ccn5c(=O)[nH]nc5c4cc3-c3ccccc3)cc2)CCC1 + C=CCn1c(=O)c2cnc(Nc3ccc(N4CCN(C)CC4)cc3)nc2n1-c1cccc(C(C)(C)O)n1 [MK1775] (first compound 2 µM, partner dose 0.1 µM) | 43.1 | 72.3 | 54.1 | 55 | 76 | 66 | 54.2 | 76.9 | 36.9 | 61.8
CS(=O)(=O)c1ccc(C(=O)Nc2ccc(Cl)c(-c3ccccn3)c2)c(Cl)c1 [vismodegib] + C#Cc1cccc(Nc2ncnc3cc(OCCOC)c(OCCOC)cc23)c1 [erlotinib] (first compound 5 µM, partner dose 4 µM) | 42.2 | 76.5 | 53.5 | 73.5 | 95.4 | 65 | 62.9 | 78.2 | 60.7 | 69.4
CN(c1ncccc1CNc1nc(Nc2ccc3c(c2)CC(=O)N3)ncc1C(F)(F)F)S(C)(=O)=O + Cn1c(=O)n(-c2ccc(C(C)(C)C#N)cc2)c2c3cc(-c4cnc5ccccc5c4)ccc3ncc21 [NVP-BEZ235] (first compound 0.4 µM, partner dose 0.02 µM) | 60.2 | 65.9 | 66.2 | 47.1 | 92.3 | 61.7 | 60.2 | 71.3 | 61.4 | 73.5
CS(=O)(=O)c1ccc(C(=O)Nc2ccc(Cl)c(-c3ccccn3)c2)c(Cl)c1 [vismodegib] + CC(C)(C)c1cnc(CSc2cnc(NC(=O)C3CCNCC3)s2)o1 [SNS-032] (first compound 5 µM, partner dose 0.05 µM) | 107 | 78.2 | 85 | 69.4 | 112 | 49.3 | 113 | 92.1 | 77.9 | 105
